According to PMC12820563, “FoxP3 forms a head-to-head dimer in vivo and stabilizes its multimerization on adjacent microsatellites”:
The list shows a part of the results.

target: T1, MBP-FoxP1dN (Mus musculus, UniProt P58462 326-579); experiment: PD-seq (MBP pull-down with sequencing); 20 mM Tris-HCl pH 7.5, 100 mM NaCl, 1.5 mM MgCl2, 0.4 uM protein, 0.1 uM dsDNA library, 30 min, room temperature, amylose pull-down; high values mean tight binding; conditions: protein: recombinant; tags: His6-MBP; chain copies: 2; dsDNA, one strand shown
T1 sequence: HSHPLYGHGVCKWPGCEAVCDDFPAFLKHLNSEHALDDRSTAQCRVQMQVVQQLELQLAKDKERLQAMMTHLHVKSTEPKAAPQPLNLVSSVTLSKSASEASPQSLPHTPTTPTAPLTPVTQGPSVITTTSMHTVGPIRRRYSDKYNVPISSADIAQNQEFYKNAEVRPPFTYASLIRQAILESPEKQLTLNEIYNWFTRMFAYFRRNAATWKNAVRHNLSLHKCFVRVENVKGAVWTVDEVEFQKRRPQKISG
How it was run: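 Binding is reads-per-million enrichment of pull-down over input, with replicates pooled. It comes from 30 min room-temperature incubation in Tris pH 7.5 buffer with NaCl and MgCl2 of 0.4 µM His6-MBP-tagged, N-terminally truncated mouse FoxP3 or FoxP1 fragment from E. coli with 0.1 µM Klenow-filled degenerate double-stranded DNA library, followed by amylose resin capture, three washes and Illumina sequencing of the released DNA.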

Row | Sequence | binding signal
1 | GATGATTGTTCTCCCAGCTGATGAATTCCTCCTTTCGAGTAAACAAATTTTCCTAATCTTTCTGTTCAAGCGCCATCTAC | 0.796 RPM ratio (pull-down/input)
2 | GATGATTGTTCTCCCAGCTGATGAATTAGAGTAATCGAGTAAACAAATTTTCCTAATCTTTCTGTTCAAGCGCCATCTAC | 1.45 RPM ratio (pull-down/input)
3 | GATGATTGTTCTCCCAGCTGATGAATTTACGTCGTCGAGTAAACAAATTTTCCTAATCTTTCTGTTCAAGCGCCATCTAC | 1.25 RPM ratio (pull-down/input)
4 | GATGATTGTTCTCCCAGCTGATGAATTTCGCTTTTCGAGTAAACAAATTTTCCTAATCTTTCTGTTCAAGCGCCATCTAC | 0.933 RPM ratio (pull-down/input)
5 | GATGATTGTTCTCCCAGCTGATGAATTTAGATGCTCGAGTAAACAAATTTTCCTAATCTTTCTGTTCAAGCGCCATCTAC | 1.78 RPM ratio (pull-down/input)
6 | GATGATTGTTCTCCCAGCTGATGAATTTAAACGTTCGAGTAAACAAATTTTCCTAATCTTTCTGTTCAAGCGCCATCTAC | 0.923 RPM ratio (pull-down/input)
7 | GATGATTGTTCTCCCAGCTGATGAATTGATGCACTCGAGTAAACAAATTTTCCTAATCTTTCTGTTCAAGCGCCATCTAC | 1.72 RPM ratio (pull-down/input)
8 | GATGATTGTTCTCCCAGCTGATGAATTCAAACCATCGAGTAAACAAATTTTCCTAATCTTTCTGTTCAAGCGCCATCTAC | 0.914 RPM ratio (pull-down/input)
9 | GATGATTGTTCTCCCAGCTGATGAATTTAGCTGTTCGAGTAAACAAATTTTCCTAATCTTTCTGTTCAAGCGCCATCTAC | 1.03 RPM ratio (pull-down/input)
10 | GATGATTGTTCTCCCAGCTGATGAATTCTAGATGTCGAGTAAACAAATTTTCCTAATCTTTCTGTTCAAGCGCCATCTAC | 0.96 RPM ratio (pull-down/input)
11 | GATGATTGTTCTCCCAGCTGATGAATTGTCTGTGTCGAGTAAACAAATTTTCCTAATCTTTCTGTTCAAGCGCCATCTAC | 1.11 RPM ratio (pull-down/input)
12 | GATGATTGTTCTCCCAGCTGATGAATTCAATGAGTCGAGTAAACAAATTTTCCTAATCTTTCTGTTCAAGCGCCATCTAC | 0.91 RPM ratio (pull-down/input)
13 | GATGATTGTTCTCCCAGCTGATGAATTAAACCCCTCGAGTAAACAAATTTTCCTAATCTTTCTGTTCAAGCGCCATCTAC | 0.85 RPM ratio (pull-down/input)
14 | GATGATTGTTCTCCCAGCTGATGAATTGGAGAAATCGAGTAAACAAATTTTCCTAATCTTTCTGTTCAAGCGCCATCTAC | 0.927 RPM ratio (pull-down/input)
15 | GATGATTGTTCTCCCAGCTGATGAATTGTTTGCATCGAGTAAACAAATTTTCCTAATCTTTCTGTTCAAGCGCCATCTAC | 2.26 RPM ratio (pull-down/input)
16 | GATGATTGTTCTCCCAGCTGATGAATTGGCCCTCTCGAGTAAACAAATTTTCCTAATCTTTCTGTTCAAGCGCCATCTAC | 0.852 RPM ratio (pull-down/input)

Row | Sequence | binding signal
17 | GATGATTGTTCTCCCAGCTGATGAATTTTCAGGCTCGAGTAAACAAATTTTCCTAATCTTTCTGTTCAAGCGCCATCTAC | 0.771 RPM ratio (pull-down/input)
18 | GATGATTGTTCTCCCAGCTGATGAATTACATTGATCGAGTAAACAAATTTTCCTAATCTTTCTGTTCAAGCGCCATCTAC | 1.21 RPM ratio (pull-down/input)
19 | GATGATTGTTCTCCCAGCTGATGAATTCGGGTCGTCGAGTAAACAAATTTTCCTAATCTTTCTGTTCAAGCGCCATCTAC | 0.781 RPM ratio (pull-down/input)
20 | GATGATTGTTCTCCCAGCTGATGAATTTTGGTCCTCGAGTAAACAAATTTTCCTAATCTTTCTGTTCAAGCGCCATCTAC | 0.86 RPM ratio (pull-down/input)
21 | GATGATTGTTCTCCCAGCTGATGAATTGGCGCGGTCGAGTAAACAAATTTTCCTAATCTTTCTGTTCAAGCGCCATCTAC | 0.784 RPM ratio (pull-down/input)
22 | GATGATTGTTCTCCCAGCTGATGAATTAGTCATATCGAGTAAACAAATTTTCCTAATCTTTCTGTTCAAGCGCCATCTAC | 1.07 RPM ratio (pull-down/input)
23 | GATGATTGTTCTCCCAGCTGATGAATTTCAGAATTCGAGTAAACAAATTTTCCTAATCTTTCTGTTCAAGCGCCATCTAC | 0.914 RPM ratio (pull-down/input)
24 | GATGATTGTTCTCCCAGCTGATGAATTGGCTATATCGAGTAAACAAATTTTCCTAATCTTTCTGTTCAAGCGCCATCTAC | 0.923 RPM ratio (pull-down/input)
25 | GATGATTGTTCTCCCAGCTGATGAATTGATGTGGTCGAGTAAACAAATTTTCCTAATCTTTCTGTTCAAGCGCCATCTAC | 1.14 RPM ratio (pull-down/input)
26 | GATGATTGTTCTCCCAGCTGATGAATTCTACTTATCGAGTAAACAAATTTTCCTAATCTTTCTGTTCAAGCGCCATCTAC | 0.921 RPM ratio (pull-down/input)
27 | GATGATTGTTCTCCCAGCTGATGAATTAATGCAATCGAGTAAACAAATTTTCCTAATCTTTCTGTTCAAGCGCCATCTAC | 1.55 RPM ratio (pull-down/input)
28 | GATGATTGTTCTCCCAGCTGATGAATTGTCCCAATCGAGTAAACAAATTTTCCTAATCTTTCTGTTCAAGCGCCATCTAC | 1.11 RPM ratio (pull-down/input)
29 | GATGATTGTTCTCCCAGCTGATGAATTTACAGACTCGAGTAAACAAATTTTCCTAATCTTTCTGTTCAAGCGCCATCTAC | 1.19 RPM ratio (pull-down/input)
30 | GATGATTGTTCTCCCAGCTGATGAATTGTCTTGCTCGAGTAAACAAATTTTCCTAATCTTTCTGTTCAAGCGCCATCTAC | 0.934 RPM ratio (pull-down/input)
31 | GATGATTGTTCTCCCAGCTGATGAATTCGGTCTCTCGAGTAAACAAATTTTCCTAATCTTTCTGTTCAAGCGCCATCTAC | 0.739 RPM ratio (pull-down/input)
32 | GATGATTGTTCTCCCAGCTGATGAATTCGACTTCTCGAGTAAACAAATTTTCCTAATCTTTCTGTTCAAGCGCCATCTAC | 0.822 RPM ratio (pull-down/input)
